The list shows a part of the results.

The test relates to PfHDP1 homeodomain (GST-tagged). In words: gcPBM binding intensity (ln(normalized median fluorescence intensity)); higher = stronger DNA binding. In a few lines: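 In this array assay, P. falciparum DNA-binding domains with a GST tag, expressed in E. coli, were applied for 1 h to primer-extended double-stranded 36-bp intergenic genomic probes and negative controls on an Agilent 4 × 180k array. Bound protein was visualised with Alexa488 anti-GST antibody at 488 nm. Binding intensity is the highest Masliner-normalised natural-log median intensity across replicate spots of either probe orientation.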
On to “TATATATATATATAATGTACAAACTCCTTTATATAT [XGTACX_site4545]”, for which the “gcPBM binding intensity (ln)” value came to 9.17.
Next, “AGGTTGAATATATATTTGTGATTATATTATTTTATT [CACACA_negctrl_site778]”: 6.39.
The figure for “CCATGTCAAACATTTGCACACAAAAAAATAAAAATT [CACACA_site4546]” is 9.71; for “GTTTTTTTTATATATTGTACAAATAATATATTATAT [XGTACX_site29]” it is 7.42.
The figure for “TCATTCAAAAAAAATCAACACACAGTTACATAGCTC [CACACA_site8700]” is 6.61; for “TTTTCAAAAATATACACACACATAAATATATGTATA [CACACA_site777]” it is 6.48.
Turning to “AAAAAAATTTTAAAATGTACAAATTTTAATATATAT [XGTACX_site7628]”, the “gcPBM binding intensity (ln)” value was 6.41.
Next, “ATTCTAAATATGTATATACACACTTTTAATATTCAT [CACACA_site4118]”: 6.93; “TTTTTTATTTAAAGTAGTACTTTTTAGAAAACAAAA [XGTACX_site6759]”: 6.06.
Next, “TTATTTTAAATTAACACATGCATAATATATGTATAT [TGCATGCA_site597]”: 6.31.
The figure for “TTTATGAAACAGTGCACACATAAAAATAAATACATA [CACACA_site5631]” is 10.2; for “TAAAATTATGTAATAACACACATATACAATACATAT [CACACA_site1236]” it is 6.72; for “TTATGAATATTGATGTATAAAAAAATATATATGTTA [XGTACX_negctrl_site390]” it is 6.45.
In the case of AAAGGTTTGCGTTGTGTGCACAAAATAAATATATAA, the “gcPBM binding intensity (ln)” value was 10.6.
The figure for “GATATATAACTTTTAACACACAAAAAAAAAAAAAAT [CACACA_site7653]” is 6.61.
With “GAAAATTCATAAAAATGTACTTATTATATTATTTAT [XGTACX_site2169]”, the “gcPBM binding intensity (ln)” value was found to be 5.98.
Next, “CAAAATATTTTTTCCTGTACATAATTCCTATTTCAC [XGTACX_site3590]”: 6.53; “ATATAATAATATGGTTGTACATAAATAACACATGAA [XGTACX_site6592]”: 6.7.
In the case of “ATATATATATATATATGTACATACATATTGTTTGGT [XGTACX_site2284]”, the “gcPBM binding intensity (ln)” value came to 9.36.
As to “TAATAATAGAAACACACACACATAGACATATATATA [CACACA_site1307]”, the “gcPBM binding intensity (ln)” value came to 6.97.
The figure for “ATGATTATACAAAATATACACACGTGTAGACAAATA [CACACA_site1175]” is 6.91; for “AATATATATATAAATAATATACCTATATATTTTTTG [XGTACX_negctrl_site407]” it is 6.04; for “AAAAACAATTTAATCACACATATATGTCACAAAGAT [CACACA_site5043]” it is 6.81.
The figure for “CACTTAAAAAGCTAACGTACAAATACACATATATAA [XGTACX_site1851]” is 6.62; for “ATATTAAATATTATCACACACATAATTATTTCCATA [CACACA_site2334]” it is 6.58.

(Values after the supplement of paper PMC11417369.)
